Test results taken from PubChem BioAssay AID504332 (National Center for Advancing Translational Sciences (NCATS), 2011).
“And” between values parts separate entries of the source, which are not always exact repeats. Identical values can stand only once. The whole screen tested about 350,000 compounds, of which about 31,000 (8.9%) were called active. This list was built around the results that the source calls inconclusive (neither active nor inactive); the mix of calls is not that of the screen. The call rests on the fitted dose curve; in most records, active means well fitted inhibition curve with a large enough effect; inconclusive means small, poorly fitted or top-dose-only effect; inactive means no such curve, though single readings can be large or run the other way. Potencies of inconclusive entries are doubtful fits and often do not repeat.

What follows are compounds tested against Histone-lysine N-methyltransferase EHMT2 (Homo sapiens) (UniProt Q96KQ7) (assay: qHTS Assay for Inhibitors of Histone Lysine Methyltransferase G9a). Settings: G9a H3K9 monomethylation, AlphaScreen, 2 h; activity, negative = inhibition: at 59 µM (top of the series) unless noted.
Sequence of UniProt Q96KQ7 (Q96KQ7 whole entry, looked up): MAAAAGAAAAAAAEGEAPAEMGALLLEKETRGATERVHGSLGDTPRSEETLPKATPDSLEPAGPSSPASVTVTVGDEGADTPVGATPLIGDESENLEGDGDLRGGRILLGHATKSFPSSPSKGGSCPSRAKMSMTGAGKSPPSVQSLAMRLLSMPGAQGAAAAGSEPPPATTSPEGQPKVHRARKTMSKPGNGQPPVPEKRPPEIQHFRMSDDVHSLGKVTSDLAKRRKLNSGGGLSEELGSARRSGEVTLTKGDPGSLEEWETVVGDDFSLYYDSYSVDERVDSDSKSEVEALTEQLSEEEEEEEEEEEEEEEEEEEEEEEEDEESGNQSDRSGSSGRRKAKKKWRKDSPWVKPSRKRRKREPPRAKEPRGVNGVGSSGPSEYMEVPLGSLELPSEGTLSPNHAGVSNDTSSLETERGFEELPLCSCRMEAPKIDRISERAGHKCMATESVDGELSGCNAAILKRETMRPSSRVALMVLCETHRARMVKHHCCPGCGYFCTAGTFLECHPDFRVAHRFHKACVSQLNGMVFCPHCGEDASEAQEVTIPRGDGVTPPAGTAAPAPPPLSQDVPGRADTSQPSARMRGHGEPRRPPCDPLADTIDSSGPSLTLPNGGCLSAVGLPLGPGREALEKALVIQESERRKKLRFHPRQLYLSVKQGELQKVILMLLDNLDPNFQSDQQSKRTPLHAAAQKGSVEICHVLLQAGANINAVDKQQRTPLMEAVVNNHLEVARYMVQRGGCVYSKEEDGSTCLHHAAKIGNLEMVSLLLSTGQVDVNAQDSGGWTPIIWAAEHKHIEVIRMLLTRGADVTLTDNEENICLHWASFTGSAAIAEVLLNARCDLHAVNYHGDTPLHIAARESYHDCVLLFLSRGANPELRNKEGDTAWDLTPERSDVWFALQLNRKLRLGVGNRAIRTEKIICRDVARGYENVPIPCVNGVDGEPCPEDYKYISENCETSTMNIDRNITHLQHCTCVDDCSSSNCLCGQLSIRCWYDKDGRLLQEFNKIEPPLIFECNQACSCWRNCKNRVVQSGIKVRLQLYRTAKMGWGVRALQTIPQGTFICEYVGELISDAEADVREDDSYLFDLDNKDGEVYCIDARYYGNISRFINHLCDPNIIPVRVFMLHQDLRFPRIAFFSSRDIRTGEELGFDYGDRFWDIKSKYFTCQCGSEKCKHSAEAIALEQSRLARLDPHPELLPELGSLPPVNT
How it was run: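 Methyltransferase reactions run at room temperature for 2 h (20 nM enzyme, 500 nM biotin-H3K9 peptide, 20 uM SAM) after a 15 min compound preincubation; product detected by AlphaScreen beads and anti-H3K9me1 antibody.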
Further: nearly all actives have a fitted effect of over 75% in size.
On the % scale 0 is the no-effect control and ±100 the full control effect; potency means the concentration at half of the fitted maximal effect; tags describe the fitted curve by direction and shape.

| SMILES | activity, negative = inhibition | Potency |
| --- | --- | --- |
| COc1cn(-c2ccccc2)nc1C(=O)Nc1ccc(C)cc1 | inactive: -2.6% [at 102 µM] | – |
| Cc1cccc(C)c1OCc1nc2c3cnn(-c4cccc(F)c4)c3ncn2n1 | inactive: -0.748% | – |
| COc1ccc(CCNC(=O)CCCn2c(=O)c3ccccc3n(Cc3ccccc3C)c2=O)cc1OC | inactive: 3.17% | – |
| Cn1c2c(c(=O)[nH]c1=O)C(c1cccc(O)c1)C1=C(N2)c2ccccc2C1=O (centres undefined) | – | active: 31.6 µM |
| Cc1nnc(CN(C)C(=O)CC2C(=O)NCCN2Cc2ccccc2C)o1 (centres undefined) | – | active: 35.5 µM |
| CCOC(=O)c1cc(S(=O)(=O)N2CCN(c3ccc(OC)cc3)CC2)[nH]n1 | – | inconclusive: 31.6 µM [inhibitor, single point] |
| COc1ccccc1S(=O)(=O)Cc1ccc(C(=O)N2CCN(c3ccccn3)CC2)o1 | inactive: -2.68% | – |
| COc1ccc(CCNC(=O)CCc2ccc(S(=O)(=O)NCC(C)C)cc2)cc1OC | inactive: 13.2% [at 102 µM] | – |
| Cc1ccc2nc(CSc3nnc(Cc4cccs4)n3C3CCCCC3)cc(=O)n2c1 | – | inconclusive: 39.8 µM [inhibitor, single point] |
| O=C(O)c1ccc(S(=O)(=O)Nc2cccc(CP(=O)(c3ccccc3)c3ccccc3)c2)cc1 | – | inconclusive: 56.2 µM [inhibitor, partial curve] |
| Cc1ccc(CNC(=O)c2c3c(nc4ccccc24)C(=O)N(C2CCCCC2)C3)cc1 | inactive: 13.3% | – |
| CC(C)(C)n1nc2c(c1NC(=O)c1ccccc1C(F)(F)F)CS(=O)(=O)C2 | inactive: 24.1% [at 102 µM] | – |
| CCc1nnc(NS(=O)(=O)c2ccc(N/C=C\C(=O)c3cccc4ccccc34)cc2)s1 | – | inconclusive: 28.2 µM [inhibitor, single point] |
| O=C(CSc1nc2ccccc2c(=O)n1Cc1ccccc1)Nc1ccc(Br)cc1C(=O)O | – | inconclusive: 89.1 µM [inhibitor, single point] |
| CC(=O)Nc1ccc(S(=O)(=O)N2CCCC2C(=O)Nc2ccc3c(c2)OCCO3)cc1 (centres undefined) | – | inconclusive: 0.282 µM [inhibitor, partial curve, poor fit] |
| CCOC(=O)CSC1=C(C#N)C(c2ccccc2OCC)C(C#N)C(=O)N1 (centres undefined) | – | inconclusive: 50.1 µM [inhibitor, partial curve, poor fit] |
| CCOC(=O)c1sc(NC(=O)c2sccc2C)cc1C | inactive: 5.05% [at 102 µM] | – |
| COc1cc(C2CC(=O)c3c([nH]c(C(=O)OC4CCCCC4)c3C)C2)cc(OC)c1OC (centres undefined) | inactive: -0.879% | – |
| COc1cc2c(cc1OC)C[N+](C)(C)CC2 | inactive: -9.71% [at 12.7 µM] | – |
| CCN(CC)c1ccc(N=Cc2c(C)[nH]c3ccccc23)cc1 | – | active: 14.1 µM |
| Cc1ccc(NC(=O)CC2SC(=O)NC2=O)cc1 (centres undefined) | – | inconclusive: 28.2 µM [inhibitor, single point] |
| COc1ccc(CC(=O)NCc2nc3cccnc3n2Cc2ccc(F)cc2)cc1OC | inactive: 12.8% | – |
| CC(C)COc1nc2ccccc2nc1N1CCN(C)CC1 | – | inconclusive: 3.55 µM [inhibitor, full curve] |

| SMILES | activity, negative = inhibition | Potency |
| --- | --- | --- |
| Cc1cc(SCC(=O)N2CCCC2=O)nc2c(C)cccc12 | inactive: -29.1% | – |
| CN(CC(=O)Nc1cccc(C(F)(F)F)c1)S(=O)(=O)c1ccc2[nH]c3c(c2c1)CCCC3 | – | inconclusive: 10 µM [inhibitor, partial curve] |
| COc1ccc(Cl)cc1NC(=O)C(C)NC(c1ccccc1)c1ccccc1 (centres undefined) | – | active: 79.4 µM |
| CC(=O)Nc1ccc(S(=O)(=O)NCC(=O)OCC(=O)NCc2ccco2)cc1 | – | inconclusive: 89.1 µM [inhibitor, single point] |
| Cc1csc2nc(COC(=O)c3ccccc3NC(=O)c3ccc(F)cc3)cc(=O)n12 | inactive: 5.67% | – |
| COc1ccc(Cl)cc1NC(=O)CSc1nccn1Cc1ccco1 | – | inconclusive: 11.2 µM [inhibitor, partial curve] |
| Cc1cc2nc(-c3ccc(SCC(=O)N4CCc5ccccc54)nc3)[nH]c2cc1C | – | inconclusive: 8.91 µM [inhibitor, single point] |
| O=C(CSc1ncn[nH]1)Nc1nc(-c2cccc([N+](=O)[O-])c2)cs1 | – | inconclusive: 39.8 µM [inhibitor, partial curve, poor fit] |
| c1csc(CNCCCN2CCOCC2)c1 | – | inconclusive: 79.4 µM [inhibitor, single point] |
| Cn1cc(P(=S)(N2CCOCC2)N2CCOCC2)cc1P(=S)(N1CCOCC1)N1CCOCC1 | – | active: 44.7 µM |
| OC(COCc1ccc2c(c1)OCO2)CN1CCN(Cc2ccccc2)CC1 (centres undefined) | – | inconclusive: 39.8 µM [inhibitor, single point] |
| S=C(c1ccccc1)N1CCCc2ccccc21 | – | inconclusive: 25.1 µM [inhibitor, single point] |
| CCOC(=O)c1c(NC(=O)CCCOc2ccc(Cl)cc2)sc2c1CCC2 | inactive: -26.8% | – |
| COc1ccc(CNC(=O)c2ccc(NC(=O)N3CCSc4ncccc43)cc2)cc1OC | – | inconclusive: 7.08 µM [inhibitor, single point] |
| COc1ccc(C(=O)Nc2nnc(-c3cccs3)s2)cc1 | – | inconclusive: 7.94 µM [inhibitor, partial curve, poor fit] |
| CCCOc1cccc(C2C(C(=O)c3cccs3)=C(O)C(=O)N2Cc2cccnc2)c1 (centres undefined) | – | inconclusive: 79.4 µM [inhibitor, partial curve, poor fit] |
| O=C1/C(=C/c2ccc([N+](=O)[O-])cc2)C=C(c2ccccc2)N1c1ccc(O)cc1 | – | inconclusive: 2.51 µM [inhibitor, partial curve, poor fit] |
| Cc1cccc(C(=O)NNC(=O)c2ccccc2[N+](=O)[O-])c1 | inactive: 0.2% [at 102 µM] | – |
| COc1cccc(CN(C(=O)c2ccc(C(C)(C)C)cc2)C2CCS(=O)(=O)C2)c1 (centres undefined) | inactive: -6.63% | – |
| CCOC(=O)C1CCN(C(=O)Cc2c(C(=O)O)n(C)c3ccccc23)CC1 | – | inconclusive: 56.2 µM [inhibitor, partial curve, poor fit] |
| CCOC(=O)Cn1c(=O)oc2cc(S(=O)(=O)N3CCN(c4ccccc4OC)CC3)ccc21 | inactive: -4.2% | – |
| Cc1ccccc1NC(=O)CCCCC(=O)Nc1ccccc1C | inactive: 8.49% [at 102 µM] | – |
| Cc1cccc(-n2c(Cc3cc(=O)[nH]c(=O)[nH]3)nnc2SCC(=O)N2CCCCC2)c1 | – | inconclusive: 89.1 µM [inhibitor, single point] |

| SMILES | activity, negative = inhibition | Potency |
| --- | --- | --- |
| Cc1[nH]c2ccc(F)cc2c1CCN(Cc1ccco1)C(=S)NC(C)(C)C | – | inconclusive: 50.1 µM [inhibitor, partial curve] |
| CN(C)c1ncc2nc(CCc3ccccc3)c(=O)n(C3CC3)c2n1 | inactive: -8.84% [at 0.501 µM] | – |
| CCc1nnc(NC(=O)C(=O)NCCOC(=O)c2ccccc2)s1 | – | inconclusive: 3.16 µM [inhibitor, partial curve, poor fit] |
| CC(OC(=O)CCN=C1NS(=O)(=O)c2ccccc21)C(=O)Nc1ccc(S(N)(=O)=O)cc1 (centres undefined) | inactive: 13.7% [at 12.7 µM] | – |
| CCCOc1ccc(C(=O)Nc2ccc3nn(-c4ccc(OC)c(Cl)c4)nc3c2)cc1 | inactive: 26.2% | – |
| CCOc1ccc(OCC)c(NC(=O)CSCC(=O)O)c1 | – | inconclusive: 63.1 µM [inhibitor, single point] |
| O=C(CSc1nnc(NC(=O)C2CC2)s1)Nc1ccccc1Cl | inactive: -12.1% [at 102 µM] | – |
| COc1ccc(N2CCN(c3nc4ccc(C)cn4c(=O)c3C=O)CC2)cc1 | – | active: 44.7 µM |
| Cc1cc(=O)[nH]c(SCc2nnc(-c3ccccc3)o2)n1 | – | active: 7.94 µM |
| O=C(c1ccco1)N1CCCN(Cc2cn[nH]c2-c2ccc(-c3ccccc3)cc2)CC1 | – | inconclusive: 35.5 µM [inhibitor, partial curve, poor fit] |
| CSCCC(NC(=O)/C(=C/c1ccc(F)cc1)NC(C)=O)C(=O)O (centres undefined) | – | inconclusive: 70.8 µM [inhibitor, single point] |
| O=C(C1CCCN(S(=O)(=O)c2cccc3nonc23)C1)N1CCN(c2ccccc2Cl)CC1 (centres undefined) | – | inconclusive: 79.4 µM [inhibitor, single point] and inconclusive: 8.91 µM [inhibitor, partial curve] |
| CC(O)CNc1nc(NCc2ccccc2)c2cnn(C)c2n1 (centres undefined) | – | inconclusive: 1 µM [inhibitor, partial curve, poor fit] |
| COc1cc(NC(=S)Nc2cccc(C)n2)cc(OC)c1OC | inactive: -45% [at 102 µM] | – |
| C=CCN1/C(=C(\C#N)C2=NS(=O)(=O)c3ccccc32)N(C)c2ccccc21 | – | inconclusive: 39.8 µM [inhibitor, single point] |
| COc1ccc(NC(=O)c2cnn(-c3ccc(F)cc3F)c2C2CCN(C(=O)OC(C)(C)C)CC2)cc1Cl | – | inconclusive: 17.8 µM [inhibitor, partial curve, poor fit] |
| CC(O)CNCCCCOc1ccc(OCc2ccccc2)cc1 (centres undefined) | inactive: 14.5% | – |
| Cc1ccc(C(C)C)c(OCC(=O)NNC(=O)C2CSC3(C)CCC(=O)N23)c1 (centres undefined) | – | inconclusive: 44.7 µM [inhibitor, partial curve, poor fit] |
| C[n+]1c2n(c3ccccc31)N=C(c1ccc(-c3ccccc3)cc1)CS2 | – | inconclusive: 25.1 µM [inhibitor, partial curve, poor fit] |
| Cc1cc(O)c(C(c2ccc(Cl)cc2)N2CCN(c3ccccc3)CC2)c(=O)n1Cc1ccco1 (centres undefined) | – | inconclusive: 39.8 µM [inhibitor, single point] |
| CCCn1nnc(NC(=O)c2ccc(Cl)cc2Cl)n1 | – | inconclusive: 0.708 µM [inhibitor, full curve, poor fit] |
| Cc1ccc(OCc2nnc(SCCN3CCOCC3)n2C)cc1 | – | inconclusive: 31.6 µM [inhibitor, single point] |
| Cc1sc(-c2ccncc2)nc1OC(=O)c1ccc(Cl)cc1 | – | inconclusive: 89.1 µM [inhibitor, single point] |
